PubChem BioAssay AID1030 (National Center for Advancing Translational Sciences (NCATS), 2008)
Among all 220,000 compounds or so, about 16,000 (7.3%) were called active. The shares of active, inactive and inconclusive entries below differ from those in the screen. Calls follow the shape of the dose curve; as a rule, active = well fitted inhibition curve with a large enough effect (not every such curve was filed as active); inconclusive = small, poorly fitted or top-dose-only effect, or another doubt; inactive = no such curve, though single readings can be large or run the other way. Where the call is inconclusive, the potency comes from a doubtful curve fit.

target: Aldehyde dehydrogenase 1A1 (Homo sapiens) (UniProt P00352); experiment: qHTS Assay for Inhibitors of Aldehyde Dehydrogenase 1 (ALDH1A1); conditions: Purified ALDH1A1, NADH fluorescence, propionaldehyde substrate; series mostly up to 75.3 µM
Potency is read from the fitted curve at half-maximal effect; tags tell the direction and shape of the fitted curve.

Sequence of UniProt P00352 (P00352 whole entry, looked up): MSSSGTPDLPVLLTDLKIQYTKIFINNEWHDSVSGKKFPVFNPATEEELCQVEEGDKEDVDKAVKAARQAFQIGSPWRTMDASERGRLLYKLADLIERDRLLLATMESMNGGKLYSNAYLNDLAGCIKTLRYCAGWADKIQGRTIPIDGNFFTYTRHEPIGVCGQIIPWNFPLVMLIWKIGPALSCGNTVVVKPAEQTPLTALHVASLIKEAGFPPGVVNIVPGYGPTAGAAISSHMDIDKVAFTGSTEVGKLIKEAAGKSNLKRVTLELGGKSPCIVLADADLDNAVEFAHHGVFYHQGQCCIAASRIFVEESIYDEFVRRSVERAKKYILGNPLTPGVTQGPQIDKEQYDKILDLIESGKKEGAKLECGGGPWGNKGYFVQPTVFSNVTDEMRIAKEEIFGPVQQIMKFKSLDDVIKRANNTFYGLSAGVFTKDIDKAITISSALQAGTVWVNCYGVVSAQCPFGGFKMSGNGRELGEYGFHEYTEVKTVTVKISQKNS

Potency, inactive:
O=C(Cc1ncc(C(F)(F)F)cc1Cl)NCc1ccco1
CCN(CC)c1nc2n(c(=S)n1)CCS2
COc1ccccc1Nc1nc2nonc2nc1N1CCCCC1C (stereo not drawn)
O=C(CN1C(=O)c2ccccc2C1=O)Nc1ccccc1F
CC(NC(=O)C1CCCN(S(=O)(=O)c2cnc[nH]2)C1)c1ccccc1 (stereo not drawn)
Cc1ccccc1-n1c(O)cc(=O)[nH]c1=S
O=C(COc1ccc(S(=O)(=O)N2CCCCC2)cc1)NCc1ccccn1
FC(F)(F)c1cc(-c2ccccc2)nc(N2CCCCCC2)n1
Cc1cc(Nc2ccccc2)c2c([N+](=O)[O-])ccc(C)c2n1
COC(C(=O)Nc1ccc(F)cc1F)c1ccccc1 (stereo not drawn)
O=C(CSc1nc2ccccc2[nH]1)Nc1ccc(F)cc1
OCC1CCCCN1C(=S)NCc1ccco1 (stereo not drawn)
O=C1c2ccsc2SCCN1Cc1c(Cl)cccc1Cl

Potency, active:
CC(C)c1nc2ccccc2n1CC(O)COC1CCCCC1 (stereo not drawn) 28.2 µM
Cc1ccc(C(=O)n2ncn(C)c2=S)cc1 6.31 µM
Cn1c(-c2ccc3c(c2)OCO3)cnc1NCc1cccc(Cl)c1 14.1 µM
O=C(Nc1cccnc1)c1ccc2nc(-c3ccccc3)c(-c3ccccc3)nc2c1 17.8 µM
NC(=O)C1(N2CCCCC2)CCN(CC(=O)Nc2ccccc2-c2ccccc2)CC1 3.98 µM
CCOC(=O)CC(=O)CSc1nc2sc(C)cc2c(=O)n1Cc1ccco1 0.562 µM
Cc1cc(C=O)c(C)n1-c1ccc(N2CCOCC2)c([N+](=O)[O-])c1 2.51 µM
O=C1NC(=O)[C@@H]2C3c4ccccc4C=CN3[C@H](C(=O)c3cccs3)[C@H]12 (stereo partly drawn) 25.1 µM
Clc1ccc(OCc2nn3c(C4CCCCC4)nnc3s2)cc1 17.8 µM
CCN(CC(=O)Nc1c(C(=O)OC)[nH]c2ccc(C)cc12)c1ccc2c(c1)OCO2 14.1 µM
CSC1=N/C(=C\c2ccc(C)o2)C(=O)S1 10 µM
Cc1cc(C(=O)O)ccc1-n1c(C)cc(C=C2C(=O)c3ccccc3C2=O)c1C 10 µM
COCc1nnc(NC(=O)CSCc2ccccc2)s1 17.8 µM
COC1(OC)N=C(N)C2(C#N)C(c3cccc(Oc4ccccc4)c3)C12C#N (stereo not drawn) 22.4 µM
CC(=O)n1cc([C@@H]2C=C(C(=O)Nc3ccccc3)O[C@H](OCCCCO)C2)c2ccccc21 12.6 µM

Potency, inconclusive:
CCOC(=O)c1c(NC(=O)c2ccoc2C)sc2c1CCC2 28.2 µM [inhibitor, partial curve]
O=C(CN1C(=O)NC2(CCCCC2)C1=O)NCc1ccc2c(c1)OCO2 44.7 µM [inhibitor, single point]
COc1ccc(-c2csc(Nc3ccc(O)cc3)n2)cc1 39.8 µM [inhibitor, single point]
O=[N+]([O-])c1ccc(S(=O)(=O)N2CCN(Cc3c[nH]c4ccccc34)CC2)cc1 28.2 µM [inhibitor, partial curve]
CCc1nc2sc3c(c2c(=O)n1N)CCC3 35.5 µM [inhibitor, single point]
Cc1ccc(C(=O)N/C(=C\c2cccc([N+](=O)[O-])c2)C(=O)NCc2ccncc2)cc1 39.8 µM [inhibitor, single point]
O=C(c1cn[nH]c1)c1cc(F)ccc1O 28.2 µM [inhibitor, single point]
NC(=O)c1cc([N+](=O)[O-])ccc1N1CCCCC1 35.5 µM [inhibitor, single point]
COc1ccccc1-n1cnc2sc(-c3ccccc3)cc2c1=O 20 µM [inhibitor, partial curve]
Cc1onc(-c2c(Cl)cccc2Cl)c1C(=O)ONC(=O)c1ccccc1 39.8 µM [inhibitor, single point]
O=C(CN1CCC(C(=O)c2ccc3c(c2)OCCO3)CC1)NC1CCCC1 28.2 µM [inhibitor, partial curve]
CC(C)C[C@@H]1NC(=O)[C@H](C(C)C)NC(=O)c2cc([N+](=O)[O-])cc(I)c2OCC[C@@H](C(N)=O)NC1=O 44.7 µM [inhibitor, single point]
CCOC(=O)N1CCN(c2ccc([N+](=O)[O-])cc2F)CC1C (stereo not drawn) 39.8 µM [inhibitor, single point]
O=C1CS/C(=N\C(=O)N2c3ccccc3Sc3ccccc32)N1 39.8 µM [inhibitor, single point]
COc1ccc(CN(C)CCc2ccccn2)cc1OC 39.8 µM [inhibitor, single point]
Cc1cc(C)cc(NC(=S)Nc2ccc(Cl)c(Cl)c2)c1 35.5 µM [inhibitor, single point]
NC(=O)c1ccccc1NC(=O)Nc1ccc(F)c(Cl)c1 39.8 µM [inhibitor, single point]
COc1ccc(C(=O)NC(=S)NNC(=O)Cc2cccs2)cc1 25.1 µM [inhibitor, single point]
CCOc1ccc(NC2=NCCC(=O)N2Cc2cccs2)cc1 39.8 µM [inhibitor, single point]
COc1ccc(C2CC(C)(c3ccc(OC)cc3OC)Nc3ccccc3N2)c(OC)c1 (stereo not drawn) 39.8 µM [inhibitor, single point]
CC(c1ccccc1F)n1cc(C(=O)NCCc2ccco2)nn1 (stereo not drawn) 25.1 µM [inhibitor, single point]
CCN(CC)CCCNc1oc(-c2ccc(OC)c(OC)c2)nc1C#N 25.1 µM [inhibitor, partial curve]
COc1ccc2ccccc2c1/C=N/NC(=O)c1sc(N)c(C#N)c1C 35.5 µM [inhibitor, single point]
CC(C)c1ccc(OCC(O)CN2CCN(c3ccccc3)CC2)cc1 (stereo not drawn) 39.8 µM [inhibitor, single point]
CCOC(=O)C(C)n1cnc2c(cnn2-c2ccc(Cl)cc2)c1=O (stereo not drawn) 39.8 µM [inhibitor, single point]
CC(C)(C)c1ccc(CN(Cc2ccco2)Cc2nnnn2C2CCCC2)cc1 15.8 µM [inhibitor, partial curve]
O=C(c1ccco1)N1CCC2(CC1)CCN(c1ccccc1)CC2 12.6 µM [inhibitor, partial curve]
Cc1ccc2oc(=O)c3cc(C(=O)NCCCN4CCc5ccccc5C4)sc3c2c1 39.8 µM [inhibitor, single point]
Cc1nc(NCC2CCCO2)c2nnn(Cc3c(F)cccc3Cl)c2n1 (stereo not drawn) 44.7 µM [inhibitor, single point]
CC(OC(=O)c1ccc2c(=O)n3c(nc2c1)CCCCC3)C(=O)Nc1ccc(Cl)cn1 (stereo not drawn) 25.1 µM [inhibitor, partial curve]
CC1(C)CC(=O)c2cc(OCC(=O)NCCCN3CCN(c4ccc(F)cc4)CC3)ccc2O1 39.8 µM [inhibitor, single point]
COc1ccc(OCC(=O)NC(=S)Nc2ccc(N3CCOCC3)c(Cl)c2)cc1 39.8 µM [inhibitor, single point]
COc1ccc(C(=O)NC(=S)NNC(=O)[C@H]2C[C@@H]2c2ccccc2)cc1OC 39.8 µM [inhibitor, single point]
O=c1c(-c2ccc(Cl)cc2)nc2cnc(N3CCNCC3)nc2n1Cc1cccs1 10 µM [inhibitor, partial curve]
O=C(COC(=O)CNC(=O)c1ccc(Cl)cc1)Nc1ccc2c(c1)OCCO2 2.38 µM [inhibitor, partial curve, poor fit]
CC(=O)Nc1ccc(NC(=O)Cc2ccc(S(=O)(=O)N3CCCCC3)s2)cc1 22.4 µM [inhibitor, partial curve]
Cc1ccc(/C=N/NC(=O)c2c[nH]c3ccccc23)o1 39.8 µM [inhibitor, single point]
CCOC(=O)c1ccc(S(=O)(=O)N2CCN(C3CCCC3)CC2)cc1 22.4 µM [inhibitor, single point]
S=C(Nc1ccc(Cl)cc1Cl)Nc1ccccc1Oc1ccccc1 39.8 µM [inhibitor, single point]
S=C(NCc1ccccc1)NCc1cccc(CNC(=S)NCc2ccccc2)c1 39.8 µM [inhibitor, single point]
CCOc1ccc(OCC)c(NC(=O)CN2CCN(c3cccc(C)c3)CC2)c1 39.8 µM [inhibitor, single point]
COc1ccc(-c2nc(C#N)c(N3CCc4ccccc4C3)o2)cc1OC 22.4 µM [inhibitor, partial curve]
O=C(CCC(=O)OCC(=O)c1ccc(F)cc1)NC1CCCCC1 35.5 µM [inhibitor, single point]
Cc1ccc(Cn2nc3c(cc2=O)CCc2ccccc2-3)cc1 39.8 µM [inhibitor, single point]
CC1(C)CC(=O)C=C(Nc2ccc(Br)cn2)C1 22.4 µM [inhibitor, partial curve]
